Measured values as given in the supplement of paper PMC4967469.
By IC50 is meant the dose at which the fit gives 50% viability; where the fit passes the top or lowest dose, that dose stands as a limit. AUC sums up the same curve from the lowest dose to the 256-fold higher top dose; the more sensitive the line, the further below 1.

Compound: COc1ccc(C2=N[C@@H](c3ccc(Cl)cc3)[C@@H](c3ccc(Cl)cc3)N2C(=O)N2CCNC(=O)C2)c(OC(C)C)c1 [Nutlin-3a]
Test: Viability of human cancer cell lines after 72 h of drug (GDSC screen)
Protocol: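 Human cancer cell lines in 384-well plates, medium with 10% serum, drug for 72 h over a 256-fold dose range (nine 2-fold or five 4-fold steps up to the top dose). Adherent lines were fixed and stained with the nucleic acid dye Syto60, suspension lines read with resazurin; signal relative to control wells, capped at 0 and 100%. One two-parameter sigmoid per drug and line, fitted in a mixed model over all curves with the slope shared within a line.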

Cell Line	AUC	IC50 [µM]
NCI-H1435 (lung adenocarcinoma, semi-adherent, top dose 8 µM)	0.99	> 8
NCI-H1436 (small cell lung carcinoma, suspension, top dose 8 µM)	0.983	> 8
NCI-H1437 (lung adenocarcinoma, adherent, top dose 8 µM)	0.963	> 8
NCI-H1563 (lung adenocarcinoma, adherent, top dose 8 µM)	0.885	> 8
NCI-H1568 (lung adenocarcinoma, adherent, top dose 8 µM)	0.978	> 8
NCI-H1623 (lung adenocarcinoma, adherent, top dose 8 µM)	0.978	> 8
NCI-H1648 (lung adenocarcinoma, adherent, top dose 4 µM)	0.957	> 4
NCI-H1651 (lung adenocarcinoma, adherent, top dose 8 µM)	0.982	> 8
NCI-H1688 (small cell lung carcinoma, adherent, top dose 8 µM)	0.981	> 8
NCI-H1693 (lung adenocarcinoma, adherent, top dose 4 µM)	0.958	> 4
NCI-H1694 (small cell lung carcinoma, suspension, top dose 8 µM)	0.985	> 8
NCI-H1703 (lung adenocarcinoma, adherent, top dose 8 µM)	0.898	> 8
NCI-H1755 (lung adenocarcinoma, adherent, top dose 8 µM)	0.973	> 8
NCI-H1770 (non-small cell lung carcinoma, suspension, top dose 8 µM)	0.991	> 8
NCI-H1781 (lung adenocarcinoma, adherent, top dose 8 µM)	0.989	> 8
NCI-H1792 (lung adenocarcinoma, adherent, top dose 8 µM)	0.987	> 8
NCI-H1836 (small cell lung carcinoma, suspension, top dose 8 µM)	0.988	> 8
NCI-H1838 (lung adenocarcinoma, adherent, top dose 4 µM)	0.984	> 4
NCI-H1869 (lung squamous cell carcinoma, adherent, top dose 8 µM)	0.963	> 8
NCI-H1876 (small cell lung carcinoma, adherent, top dose 8 µM)	0.987	> 8
NCI-H1944 (lung adenocarcinoma, adherent, top dose 8 µM)	0.907	> 8
NCI-H1975 (lung adenocarcinoma, adherent, top dose 8 µM)	0.982	> 8
NCI-H1993 (lung adenocarcinoma, adherent, top dose 8 µM)	0.981	> 8
NCI-H2009 (lung adenocarcinoma, adherent, top dose 8 µM)	0.974	> 8
NCI-H2023 (lung adenocarcinoma, adherent, top dose 4 µM)	0.952	> 4
NCI-H2030 (lung adenocarcinoma, adherent, top dose 4 µM)	0.965	> 4

Cell Line	AUC	IC50 [µM]
NCI-H2052 (mesothelioma, adherent, top dose 8 µM)	0.92	> 8
NCI-H2066 (small cell lung carcinoma, adherent, top dose 8 µM)	0.98	> 8
NCI-H2081 (small cell lung carcinoma, suspension, top dose 8 µM)	0.986	> 8
NCI-H2085 (lung adenocarcinoma, adherent, top dose 4 µM)	0.947	> 4
NCI-H2087 (lung adenocarcinoma, semi-adherent, top dose 8 µM)	0.858	7.37
NCI-H2110 (non-small cell lung carcinoma, adherent, top dose 8 µM)	0.956	> 8
NCI-H2135 (non-small cell lung carcinoma, adherent, top dose 8 µM)	0.974	> 8
NCI-H2141 (small cell lung carcinoma, suspension, top dose 8 µM)	0.959	> 8
NCI-H2172 (non-small cell lung carcinoma, adherent, top dose 8 µM)	0.981	> 8
NCI-H2227 (small cell lung carcinoma, semi-adherent, top dose 8 µM)	0.986	> 8
NCI-H2291 (lung adenocarcinoma, adherent, top dose 8 µM)	0.982	> 8
NCI-H2342 (lung adenocarcinoma, adherent, top dose 8 µM)	0.977	> 8
NCI-H2347 (lung adenocarcinoma, adherent, top dose 8 µM)	0.973	> 8
NCI-H2405 (lung adenocarcinoma, adherent, top dose 8 µM)	0.969	> 8
NCI-H2444 (non-small cell lung carcinoma, adherent, top dose 8 µM)	0.987	> 8
NCI-H2452 (mesothelioma, adherent, top dose 8 µM)	0.984	> 8
NCI-H3122 (lung adenocarcinoma, adherent, top dose 8 µM)	0.985	> 8
NCI-N87 (stomach, adherent, top dose 8 µM)	0.974	> 8
NCI-SNU-1 (stomach, suspension, top dose 8 µM)	0.948	> 8
NCI-SNU-5 (stomach, suspension, top dose 8 µM)	0.985	> 8
NCI-SNU-16 (stomach, suspension, top dose 8 µM)	0.987	> 8
NEC8 (testis, adherent, top dose 8 µM)	0.658	1.27
NH-12 (neuroblastoma, adherent, top dose 8 µM)	0.812	4.94
NKM-1 (acute myeloid leukaemia, suspension, top dose 8 µM)	0.685	1.67
NMC-G1 (glioma, adherent, top dose 8 µM)	0.892	> 8
NOMO-1 (acute myeloid leukaemia, suspension, top dose 8 µM)	0.883	> 8

Cell Line	AUC	IC50 [µM]
NOS-1 (osteosarcoma, adherent, top dose 8 µM)	0.931	> 8
NU-DUL-1 (B-cell lymphoma, suspension, top dose 8 µM)	0.927	> 8
NUGC-3 (stomach, adherent, top dose 4 µM)	0.971	> 4
NUGC-4 (stomach, adherent, top dose 8 µM)	0.918	> 8
NY (osteosarcoma, adherent, top dose 8 µM)	0.963	> 8
OACM5-1 (oesophagus, semi-adherent, top dose 8 µM)	0.986	> 8
OACp4C (oesophagus, adherent, top dose 8 µM)	0.962	> 8
OAW-28 (ovary, adherent, top dose 4 µM)	0.967	> 4
OAW-42 (ovary, adherent, top dose 8 µM)	0.958	> 8
OC-314 (ovary, adherent, top dose 8 µM)	0.991	> 8
OCI-AML2 (acute myeloid leukaemia, suspension, top dose 8 µM)	0.858	4.07
OCI-AML3 (acute myeloid leukaemia, suspension, top dose 8 µM)	0.884	6.55
OCI-AML5 (acute myeloid leukaemia, suspension, top dose 8 µM)	0.733	2.15
OCI-LY7 (B-cell lymphoma, suspension, top dose 8 µM)	0.963	> 8
OCI-LY-19 (B-cell lymphoma, suspension, top dose 8 µM)	0.698	1.71
OCI-M1 (acute myeloid leukaemia, suspension, top dose 8 µM)	0.993	> 8
OCUB-M (breast, adherent, top dose 8 µM)	0.973	> 8
OCUM-1 (stomach, adherent, top dose 8 µM)	0.783	3.76
OE19 (oesophagus, adherent, top dose 8 µM)	0.985	> 8
OE21 (oesophagus, adherent, top dose 8 µM)	0.889	> 8
OE33 (oesophagus, adherent, top dose 8 µM)	0.982	> 8
OMC-1 (cervix, adherent, top dose 8 µM)	0.988	> 8
ONS-76 (medulloblastoma, adherent, top dose 8 µM)	0.799	4.17
OPM-2 (myeloma, suspension, top dose 8 µM)	0.994	> 8
